In all, about 120,000 compounds went through this assay and about 5,300 (4.4%) were called active. Inconclusive means that the source gave no clear call. Such entries were picked first, then a sample of the others. Calls follow the shape of the dose curve; as a rule, active = well fitted inhibition curve with a large enough effect; inconclusive = small, poorly fitted or top-dose-only effect; inactive = no such curve, though single readings can be large or run the other way. Potencies beside an inconclusive call are fits to weak or partial responses and may not hold up.
Experiment: qHTS Primary assay for Inhibitors of Plasmodium falciparum Dd2 growth in vitro; also: nearly all actives have a fitted effect of over 65% in size
Details: P. falciparum Dd2 growth, SYBR Green, 72 h; series mostly up to 28.9 µM
Procedure, shortened: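 Infected erythrocytes (Dd2, 0.3% parasitemia, 2.5% hematocrit final) are added to compound in RPMI-1640/Albumax II medium, grown 72 h at 37C in low oxygen, then lysed with saponin/Triton-X containing SYBR Green and read by fluorescence.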
Potency is read from the fitted curve at half-maximal effect; tags tell the direction and shape of the fitted curve.

Row | Compound | Potency
1 | COc1ccc(C(=O)NC2CCN(c3cc(-c4ccc(F)cc4)[nH]n3)C2)cc1 (centres undefined) | inconclusive: 3.98 µM [inhibitor, single point]
2 | O=C(NCc1c[nH]c2ncccc12)c1cccc2[nH]ccc12 | inactive
3 | CCN1c2cc(C)ccc2-n2cccc2C12CCN(C(=O)Nc1cc(OC)c(OC)c(OC)c1)CC2 | inconclusive: 17.8 µM [inhibitor, single point]
4 | CCOC(=O)c1c(NC(=O)c2ccc(S(=O)(=O)N3CCCC(C)C3)cc2)sc2c1CCN(C(C)C)C2 (centres undefined) | active: 7.94 µM
5 | Cc1ccc(S(=O)(=O)c2nc(-c3ccco3)oc2SCc2ccccc2Cl)cc1 | inconclusive: 17.8 µM [inhibitor, single point]
6 | COCCCNC(=O)c1ccc(CN2C(=O)NC3(CCS(=O)(=O)CC3)C2=O)cc1 | inactive
7 | COc1cc2c(cc1OCc1ccccc1)N(C(=O)c1cccc3[nH]ccc13)CC21CCN(C)CC1 | inconclusive: 2.51 µM [inhibitor, partial curve, poor fit]
8 | O=C(CN1CCCCCCC1)N1CCn2nc(Cc3ccccc3)cc2C1 | inconclusive: 10 µM [inhibitor, partial curve, poor fit]
9 | COCc1nnc2n1CCC(NC(=O)c1n[nH]c3ccccc13)CC2 (centres undefined) | inactive
10 | CC1=C(c2ccc(Cl)cc2)S(=O)(=O)N=C1N1CCN(c2cccc(C(F)(F)F)c2)CC1 | inactive
11 | COc1ccc(C(=O)N2C[C@@H]3OCC(=O)N(CC4CC4)[C@@H]3C2)cc1 | inactive
12 | O=C(Cc1cccc(F)c1)NCCn1ccn2nc(-c3ccc(F)cc3)cc2c1=O | inactive
13 | COc1ccc(OC)c(CN2CCNc3cc(-c4ccnc(C)c4)ncc3C2)c1 | inconclusive: 22.4 µM [inhibitor, single point]
14 | COc1ccccc1CNC(=O)CCC1N=C2c3ccccc3N=C(SCc3ccccc3Cl)N2C1=O (centres undefined) | inconclusive: 1 µM [inhibitor, full curve, poor fit]
15 | COCc1nnc(NC(=O)C2c3ccccc3C(=O)N(C3CCCC3)C23CCCC3)s1 (centres undefined) | active: 7.94 µM
16 | CCSc1nc(-c2ccc(Cl)cc2)nc2c1Cc1c(CO)cnc(C)c1O2 | inconclusive: 17.8 µM [inhibitor, single point]
17 | O=C(NCc1ccc(Cl)cc1)c1ccc2c(c1)NC(=O)C(CS(=O)(=O)Cc1ccccc1Cl)N2 (centres undefined) | inconclusive: 7.94 µM [inhibitor, partial curve, poor fit]
18 | Cc1csc(NC(=O)[C@@H]2C[C@@H](c3ccc(F)cc3)N([S+](=O)([O-])c3cccnc3)C2)n1 | inconclusive: 7.94 µM [inhibitor, partial curve, poor fit]
19 | CCc1cccc(NC(=O)Cn2cc(C(=O)c3ccncc3)c(=O)c3cc(C)c(C)cc32)c1 | active: 10 µM
20 | CCn1c(=O)c2cc(C(=O)NCCCN(C)Cc3ccccc3)sc2c2ccccc21 | inconclusive: 3.55 µM [inhibitor, full curve, poor fit]

Row | Compound | Potency
21 | CCn1nc(C(C)C)cc1C(=O)N1C[C@@H]2CCN(C)C[C@]2(C(=O)O)C1 | inactive
22 | CC(C)N[C@H]1CC(C)(C)[C@@H]2C[C@@](C)(O)CC[C@]12CCC(=O)NCCc1c[nH]c2ccccc12 | inconclusive: 11.2 µM [inhibitor, single point]
23 | Cc1ccc(NC(c2nnc(-c3ccccc3)o2)c2ccccc2F)c([N+](=O)[O-])c1 (centres undefined) | inconclusive: 17.8 µM [inhibitor, single point]
24 | Cc1ccc(C(=O)N2CCCC3(C2)Nc2cccnc2NC3=NC2CCCC2)cc1F (centres undefined) | inconclusive: 1.26 µM [inhibitor, partial curve, poor fit]
25 | C[C@]1(CO)[C@H]2Cc3sc(NC(=O)C4CCC4)nc3[C@@H](CC(=O)NC3CCCC3)[C@]2(C)CC[C@H]1O | inconclusive: 6.31 µM [inhibitor, partial curve, poor fit]
26 | Cc1cnc(-c2ccccc2)n1C1CCCN(C(=O)C(C)C)C1 (centres undefined) | inconclusive: 17.8 µM [inhibitor, single point]
27 | CCCn1c(C)cnc1CC1CCN(S(=O)(=O)c2cccs2)CC1 | inconclusive: 1 µM [inhibitor, partial curve, poor fit]
28 | CCC(C)NC(=O)c1ccc(-c2nnc3ccc(NC(=O)C4CC4)cn23)cc1 (centres undefined) | inconclusive: 0.631 µM [inhibitor, full curve, poor fit]
29 | COc1ccc2cc(C(=O)NCc3ccc4c(c3)CCN4C(=O)c3ccc(C)cc3)[nH]c2c1 | inconclusive: 15.8 µM [inhibitor, single point]
30 | CCOc1ccc2nc(N3CCCC(C(=O)NCc4ccccc4Cl)C3)sc2c1 (centres undefined) | inconclusive: 10 µM [inhibitor, single point]
31 | O=C(NCc1ccccc1)C1CCN(C(=O)c2cnn(-c3ccccc3)c2-n2cccc2)CC1 | inactive
32 | CCC(=O)NC[C@H]1Cn2c(-c3ccc4c(c3)OCO4)cnc2CO1 | inconclusive: 31.6 µM [inhibitor, single point]
33 | CCCCCCc1cc2cc(-c3nnc(-c4ccc(C)cc4)o3)c(=O)oc2cc1O | inconclusive: 1.58 µM [inhibitor, full curve, poor fit]
34 | Fc1ccc(CN2CC(N3CCc4ccccc43)C2)cc1 | inconclusive: 10 µM [inhibitor, partial curve, poor fit]
35 | COc1ccc(-c2noc([C@@H]3CCCN3C(=O)c3ccncc3)n2)cc1OC | inactive
36 | O=C(NCC1CN(C(=O)Cc2cccc(Cl)c2)CC12CN(c1ccccc1)C2)c1ccccc1 (centres undefined) | inconclusive: 2 µM [inhibitor, partial curve, poor fit]
37 | CCCc1noc(-c2cccn3c(CNC(=O)c4ccc(OCC)cc4)nnc23)n1 | inconclusive: 3.98 µM [inhibitor, partial curve, poor fit]
38 | CCc1ccc(NC(=O)CSc2nc(C)cc(COC)c2C#N)cc1 | inconclusive: 17.8 µM [inhibitor, single point]
39 | COc1ccc(CN2CC(N(C)c3ccccc3C)C2)cc1 | inconclusive: 11.2 µM [inhibitor, partial curve, poor fit]

Reference: PubChem BioAssay AID1347417 (National Center for Advancing Translational Sciences (NCATS), 2020)
